In paper PMC4336329 (PLoS ONE, 2015):
Hit rate of the full screen: of about 310,000 compounds, about 14,000 (4.5%) showed an effect of 50% or more. The effect is printed as a negative number. The list shows a part of the results.

target: human ether-à-go-go-related gene (hERG) potassium channel (human, UniProt Q12809); test: primary screen, population patch clamp on CHO cells stably expressing hERG
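Also: peak tail current of the secondary pulse compared with the same well before compound.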

human ether-à-go-go-related gene (hERG) potassium channel, sequence (Q12809 whole entry, looked up): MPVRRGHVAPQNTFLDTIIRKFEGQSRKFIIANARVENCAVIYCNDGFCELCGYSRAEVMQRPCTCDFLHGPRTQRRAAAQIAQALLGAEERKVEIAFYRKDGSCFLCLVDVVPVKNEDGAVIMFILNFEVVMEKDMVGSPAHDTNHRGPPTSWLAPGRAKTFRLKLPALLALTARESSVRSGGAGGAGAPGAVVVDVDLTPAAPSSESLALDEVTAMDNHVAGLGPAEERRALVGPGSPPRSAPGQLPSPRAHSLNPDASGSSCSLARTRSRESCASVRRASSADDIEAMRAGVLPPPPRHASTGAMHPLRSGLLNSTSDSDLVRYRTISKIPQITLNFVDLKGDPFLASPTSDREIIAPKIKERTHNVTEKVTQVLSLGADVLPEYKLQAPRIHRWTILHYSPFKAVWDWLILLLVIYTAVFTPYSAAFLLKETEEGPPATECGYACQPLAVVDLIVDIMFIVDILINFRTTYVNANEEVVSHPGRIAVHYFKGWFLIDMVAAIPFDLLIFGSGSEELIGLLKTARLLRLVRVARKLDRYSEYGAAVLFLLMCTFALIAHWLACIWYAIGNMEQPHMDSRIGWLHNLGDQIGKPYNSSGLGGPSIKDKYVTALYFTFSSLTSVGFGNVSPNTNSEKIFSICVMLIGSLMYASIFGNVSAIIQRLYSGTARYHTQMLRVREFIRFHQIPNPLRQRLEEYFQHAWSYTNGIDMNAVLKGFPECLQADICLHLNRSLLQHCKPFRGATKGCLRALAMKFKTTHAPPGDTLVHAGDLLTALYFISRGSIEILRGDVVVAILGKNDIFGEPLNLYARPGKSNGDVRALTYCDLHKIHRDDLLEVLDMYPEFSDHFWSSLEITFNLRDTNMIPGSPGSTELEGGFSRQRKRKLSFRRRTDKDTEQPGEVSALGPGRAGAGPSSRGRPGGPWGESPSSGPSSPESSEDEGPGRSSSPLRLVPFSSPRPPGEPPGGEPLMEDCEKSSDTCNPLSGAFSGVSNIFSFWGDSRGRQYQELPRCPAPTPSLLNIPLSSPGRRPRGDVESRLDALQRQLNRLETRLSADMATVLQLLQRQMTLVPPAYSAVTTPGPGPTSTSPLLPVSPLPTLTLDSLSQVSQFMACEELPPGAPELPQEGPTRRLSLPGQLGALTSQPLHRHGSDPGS

SMILES	hERG current change (%, negative = inhibition) at 10uM [%]
C=CCn1c(COc2cccc3cccnc23)nnc1SCC(=O)O	12.7
Cc1c(C)n(CCCN(C)C)c2ncnc(NC3CCCCC3)c12	-37.7
CCOc1ccc(S(=O)(=O)Oc2ccc3ccccc3c2)cc1	9.44
O=C(NC1CCCCCC1)C1CC(=O)N(c2ccc(Cl)cc2)C1 (stereo not drawn)	1.66
C/C(=N/NC(=O)CNC(=O)C1COc2ccccc2O1)c1ccc2c(c1)OCCO2 (stereo not drawn)	-1.69
CCOC(=O)C1CCN(c2ncnc3c2[nH]c2cccc(OC)c23)CC1	-0.393
O=C(O/N=C1/CCCc2occc21)c1ccc(F)cc1	56.5
CCn1c(SCC(=O)Nc2cccc(OC)c2)nnc1-c1ccc(Cl)cc1	9.25
O=C(NCc1ccc(F)cc1)C1CCC(CNS(=O)(=O)c2cccs2)CC1 (stereo not drawn)	-7.03
NC(=O)c1cnn(-c2cccc(Cl)c2)c1N	1.32
COc1ccccc1C(=O)C1Nc2ccccc2-c2nnc(SC)nc2O1 (stereo not drawn)	-11.6
Cc1ccsc1/C=N/n1c(-c2cc(-c3ccccc3)n[nH]2)n[nH]c1=S	21.2
COCCn1c(=O)[nH]c2cc(C(=O)N3CCN(c4ccc(OC)cc4)CC3)ccc2c1=O	-4.32
O=C(N/C=N/OCc1ccc(Cl)cc1Cl)NOCc1ncc(C(F)(F)F)cc1Cl	14.6
O=C(Nc1cc(Cl)ccc1Cl)N1CCCC1	1.62
CCOC(=O)c1c(NC(=O)c2ccccc2Br)sc2c1CCc1ccccc1-2	23.5
COc1ccc(Nc2nc(=O)[nH]nc2C)cc1	19.2
O=C(CSc1nnc2c(n1)[nH]c1ccc(F)cc12)NC1CC1	-5.27
COc1cc(/C=N/NC(=O)COc2cc(C)cc(C)c2)ccc1OS(=O)(=O)c1ccc(C)cc1	8.61

SMILES	hERG current change (%, negative = inhibition) at 10uM [%]
CCOC(=O)CCc1cccc2c1CCC2=O	12.5
CCCC1OC2CC3C4CCC5=CC(=O)C=CC5(C)C4C(O)CC3(C)C2(C(=O)O)O1 (stereo not drawn)	8.24
COc1cccc(-n2nnc3c(=O)n(Cc4ccc(Cl)cc4)cnc32)c1	4.62
O=C(CCn1c(=O)c2cccn2c2cccnc21)N1CCN(c2cccc(Cl)c2)CC1	-58.8
COc1ccccc1NC(=S)NCC1CCCCC1	-30.6
C=CCOc1ccc(C2CC(C)=NN2c2ccccc2)cc1 (stereo not drawn)	10.3
COc1ccccc1NCCC(=O)OCC(=O)NCc1ccco1	23.7
CCN(CC(=O)Nc1ccc(NC(C)=O)cc1)C(=O)COc1ccccc1Cc1ccccc1	-18.9
COc1ccc(C(=O)C2CN(C)CC2C(=O)c2ccc(OC)cc2)cc1 (stereo not drawn)	-57.9
O=S(=O)(Nc1nccs1)c1ccc(Cl)cc1	-6.03
C[C@H](NC(=O)c1nc[nH]c1C(=O)N1CCN(C(=O)OC(C)(C)C)CC1)C(=O)OC(C)(C)C	2.39
COc1ccc(N2CCN(C(=O)c3ccc(NS(=O)(=O)c4ccc(F)c(F)c4)cc3)CC2)cc1	-44.3
O=C(Nc1ccccc1[N+](=O)[O-])c1ccc(S(=O)(=O)N2CCCC2)cc1	1.84
O=c1c(Cc2ccc(F)cc2)c(O)ccn1C1CC1	15
CC(C(=O)NCc1ccccc1)N1C(=O)CN(C)C(=O)c2ccccc21 (stereo not drawn)	11.6
CCCCn1c(CCC(=O)O)nc2cc(S(=O)(=O)N(C)C)ccc21	15.3
CCOCCCNCc1cccc(OC)c1.O=C(O)C(=O)O	3.11
COc1nnc(-c2ccc(N3CCOCC3)c(NC(=O)c3ccc(C)cc3)c2)c2ccccc12	-68.9
COC(=O)Cn1c(=O)c2c(n(Cc3ccccc3)c1=O)N/C(=C/c1ccc(OC)cc1)C2=O	1.39

SMILES	hERG current change (%, negative = inhibition) at 10uM [%]
S=c1[nH]ncn1NCc1ccc(Cl)cc1Cl	10.2
COc1ccc(-c2c(C(F)(F)F)[nH]n3c(=O)cc(-c4ccccc4)nc23)cc1	8.64
O=C(NNC(=O)c1ccc[nH]1)c1cc(Cl)cc(Cl)c1	19.3
COC(=O)Nc1nc2ccc(Br)cc2s1	9.64
CCCCOc1ccc(C(O)(CC)CCN2CCOCC2)cc1 (stereo not drawn)	-13.4
CCN(CC)c1ccc(C(=O)OCC(=O)NCC2CCCO2)cc1 (stereo not drawn)	-31.2
Cc1onc(-c2c(F)cccc2Cl)c1C(=O)Nc1cccc2nsnc12	-20.6
C=CCC1(C#N)C(=S)NC(C)=C(C(=O)OCC)C1c1ccccc1 (stereo not drawn)	4.07
Br.Cc1ccnc(Nc2nc(-c3ccccc3)cs2)c1	-3.4
COc1cc2c(cc1OC)C(C)N(C(=O)c1ccc(Cl)c(S(=O)(=O)N3CCCCC3)c1)CC2 (stereo not drawn)	-40.1
CC(C)NC(=O)c1ccc(C(C)C)cc1	25.4
O=C(Nc1nnc(CCc2ccccc2)s1)c1cccs1	15.4
COc1cc(OC)cc(C(=O)N[C@H](C(=O)OCC(=O)Nc2sccc2C#N)C(C)C)c1	-13.3
O=C(Nc1cccc(-n2cnnn2)c1)c1ccc(OC(F)(F)F)cc1	-47.4
O=C(CNC(=O)c1ccccc1)OCc1nnc(-c2ccc(Cl)cc2)o1	-10.4
CC(=O)Nc1cccc(C(=O)NCC2(N3CCCCC3)CCCCC2)c1	19.4
O=C(OCc1nnc(-c2ccccc2)o1)C1CC(=O)N(c2ccccc2)C1 (stereo not drawn)	-21.5
CSc1ncnc2c1ccn2CC(=O)Nc1ccc(C)c(C)c1	14.3
CCc1nnc(NC(=O)CCC(=O)N2CCN(CCc3ccccc3)CC2)s1	-9.65
